Measurements: paper PMC3846882
No constants are given. Whether binding was seen depends on the method and setting. In cells and extracts the contact can be indirect. Some binding calls cover weakened binding; strength is not graded here. For some assays here: Tags and fused reporters may be left off the sequences shown.

Protein sequences, listed by entry. Tags and fused reporters are not part of them.
UniProt Q15046: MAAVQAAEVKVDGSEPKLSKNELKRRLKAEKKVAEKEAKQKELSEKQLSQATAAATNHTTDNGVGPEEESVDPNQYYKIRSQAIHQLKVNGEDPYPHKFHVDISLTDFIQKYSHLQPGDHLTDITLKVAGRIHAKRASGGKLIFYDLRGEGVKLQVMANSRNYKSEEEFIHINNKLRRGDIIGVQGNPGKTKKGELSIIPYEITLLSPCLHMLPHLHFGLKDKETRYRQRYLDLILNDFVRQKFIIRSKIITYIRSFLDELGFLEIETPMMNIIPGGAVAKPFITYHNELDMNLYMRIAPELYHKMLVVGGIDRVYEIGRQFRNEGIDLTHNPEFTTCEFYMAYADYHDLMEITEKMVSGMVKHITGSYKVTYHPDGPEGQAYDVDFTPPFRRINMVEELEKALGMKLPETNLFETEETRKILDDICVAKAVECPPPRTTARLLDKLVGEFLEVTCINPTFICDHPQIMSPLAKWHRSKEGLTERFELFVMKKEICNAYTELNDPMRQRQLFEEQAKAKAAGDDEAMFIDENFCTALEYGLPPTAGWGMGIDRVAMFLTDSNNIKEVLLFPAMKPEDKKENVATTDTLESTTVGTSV
UniProt P07814: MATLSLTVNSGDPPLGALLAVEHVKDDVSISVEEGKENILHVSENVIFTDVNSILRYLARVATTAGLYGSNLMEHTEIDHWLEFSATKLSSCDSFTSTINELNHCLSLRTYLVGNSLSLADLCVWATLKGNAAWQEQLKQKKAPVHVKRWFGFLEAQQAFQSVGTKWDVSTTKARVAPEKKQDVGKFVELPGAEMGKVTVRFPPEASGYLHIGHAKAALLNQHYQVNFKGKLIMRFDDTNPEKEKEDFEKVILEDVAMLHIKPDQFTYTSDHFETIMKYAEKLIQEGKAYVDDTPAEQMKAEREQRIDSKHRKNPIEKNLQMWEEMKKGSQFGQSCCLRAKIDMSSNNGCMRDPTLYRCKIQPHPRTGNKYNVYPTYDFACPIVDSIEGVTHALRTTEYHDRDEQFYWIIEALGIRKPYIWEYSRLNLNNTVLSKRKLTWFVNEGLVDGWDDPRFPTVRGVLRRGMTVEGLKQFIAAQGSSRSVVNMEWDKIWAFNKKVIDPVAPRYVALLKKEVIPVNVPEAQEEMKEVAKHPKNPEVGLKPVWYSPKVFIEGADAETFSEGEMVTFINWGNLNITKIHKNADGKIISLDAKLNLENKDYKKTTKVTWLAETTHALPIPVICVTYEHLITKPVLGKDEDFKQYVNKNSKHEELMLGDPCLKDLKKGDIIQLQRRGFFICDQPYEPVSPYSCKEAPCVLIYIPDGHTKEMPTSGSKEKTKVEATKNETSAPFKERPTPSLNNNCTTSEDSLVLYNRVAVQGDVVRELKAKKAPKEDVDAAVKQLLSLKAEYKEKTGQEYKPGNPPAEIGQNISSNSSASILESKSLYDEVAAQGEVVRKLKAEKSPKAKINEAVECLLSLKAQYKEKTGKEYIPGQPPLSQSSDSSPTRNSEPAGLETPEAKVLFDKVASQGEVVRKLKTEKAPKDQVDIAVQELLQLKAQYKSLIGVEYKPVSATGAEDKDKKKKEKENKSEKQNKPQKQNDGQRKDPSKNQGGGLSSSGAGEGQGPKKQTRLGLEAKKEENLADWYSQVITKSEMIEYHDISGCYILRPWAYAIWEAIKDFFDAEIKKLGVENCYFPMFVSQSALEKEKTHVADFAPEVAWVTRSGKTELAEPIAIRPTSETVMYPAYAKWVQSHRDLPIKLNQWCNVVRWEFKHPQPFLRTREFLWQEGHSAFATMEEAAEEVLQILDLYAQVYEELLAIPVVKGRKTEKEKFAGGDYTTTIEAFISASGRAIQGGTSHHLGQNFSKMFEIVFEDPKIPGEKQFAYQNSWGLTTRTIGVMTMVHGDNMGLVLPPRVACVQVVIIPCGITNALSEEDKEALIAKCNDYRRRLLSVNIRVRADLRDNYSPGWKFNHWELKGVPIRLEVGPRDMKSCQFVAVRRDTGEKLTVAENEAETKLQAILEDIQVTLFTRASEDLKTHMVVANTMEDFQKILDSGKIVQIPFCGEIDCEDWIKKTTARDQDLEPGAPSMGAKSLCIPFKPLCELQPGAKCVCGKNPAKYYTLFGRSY

Experiments:
[1] = molecular target: T1, S/FLAG/SBP tagged AIMP2 (UniProt Q13155); assay: pull-down; streptavidin pull down (SA pull down) of S/FLAG/SBP-tagged bait from lysates of transfected HEK 293T and HCT-8 cells in NETN buffer, eluate immunoblotted for endogenous proteins; mock vector as control
T1 sequence: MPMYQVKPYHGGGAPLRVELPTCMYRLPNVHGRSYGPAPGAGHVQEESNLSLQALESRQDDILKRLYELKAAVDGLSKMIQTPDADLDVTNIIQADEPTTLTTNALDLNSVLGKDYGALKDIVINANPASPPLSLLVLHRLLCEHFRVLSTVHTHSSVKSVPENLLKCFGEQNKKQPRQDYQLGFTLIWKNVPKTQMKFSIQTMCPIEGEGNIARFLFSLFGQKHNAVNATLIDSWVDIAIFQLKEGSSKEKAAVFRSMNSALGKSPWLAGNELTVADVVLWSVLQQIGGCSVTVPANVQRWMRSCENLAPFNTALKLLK

[2] = molecular target: T2, S/FLAG/SBP tagged AIMP1 (UniProt Q12904); assay: as above
T2 sequence: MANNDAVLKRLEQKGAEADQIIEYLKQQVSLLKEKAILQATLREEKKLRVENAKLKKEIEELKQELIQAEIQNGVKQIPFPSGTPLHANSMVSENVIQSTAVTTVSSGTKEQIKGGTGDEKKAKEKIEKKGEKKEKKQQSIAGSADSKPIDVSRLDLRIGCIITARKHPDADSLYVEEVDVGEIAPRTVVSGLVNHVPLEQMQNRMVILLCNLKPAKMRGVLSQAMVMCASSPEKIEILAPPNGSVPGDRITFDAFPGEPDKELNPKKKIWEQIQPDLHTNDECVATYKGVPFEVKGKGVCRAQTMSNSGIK

[3] = molecular target: S/FLAG/SBP tagged KARS (UniProt Q15046); assay: as above
[4] = molecular target: T3, Isoform 1 of Probable threonyl-tRNA synthetase 2 (human (endogenous in HEK 293T and HCT-8)) (UniProt A2RTX5); assay: co-IP; endogenous proteins; 500 μg lysate of HEK 293T and HCT-8 cells in NETN buffer, primary antibody 2 h at 4 °C, protein A/G PLUS-Agarose 12 h, immunoblot; IgG as control
T3 sequence: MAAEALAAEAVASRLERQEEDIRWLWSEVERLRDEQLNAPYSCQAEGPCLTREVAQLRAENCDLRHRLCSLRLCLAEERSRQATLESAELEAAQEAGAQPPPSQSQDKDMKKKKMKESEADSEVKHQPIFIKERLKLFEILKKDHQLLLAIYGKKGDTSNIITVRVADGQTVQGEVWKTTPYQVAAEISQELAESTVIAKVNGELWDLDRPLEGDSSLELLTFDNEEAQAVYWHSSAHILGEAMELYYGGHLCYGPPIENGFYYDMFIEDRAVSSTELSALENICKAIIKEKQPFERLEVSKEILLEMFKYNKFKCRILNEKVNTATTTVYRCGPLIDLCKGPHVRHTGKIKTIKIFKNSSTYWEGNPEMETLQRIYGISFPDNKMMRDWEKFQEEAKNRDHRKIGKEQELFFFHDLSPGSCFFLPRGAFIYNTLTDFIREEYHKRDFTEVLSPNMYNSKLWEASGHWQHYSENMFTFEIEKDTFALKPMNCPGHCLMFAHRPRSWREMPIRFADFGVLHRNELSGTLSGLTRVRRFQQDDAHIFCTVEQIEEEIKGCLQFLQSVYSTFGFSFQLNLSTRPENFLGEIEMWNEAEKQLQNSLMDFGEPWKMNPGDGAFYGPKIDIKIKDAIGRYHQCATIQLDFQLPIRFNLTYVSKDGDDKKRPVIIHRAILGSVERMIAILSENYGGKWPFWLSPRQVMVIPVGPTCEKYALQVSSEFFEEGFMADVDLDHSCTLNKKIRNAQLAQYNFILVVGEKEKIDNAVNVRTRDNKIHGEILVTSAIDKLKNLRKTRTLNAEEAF

[5] = molecular target: T4, threonyl-tRNA synthetase (human (endogenous in HEK 293T and HCT-8)) (UniProt P26639); assay: as above
T4 sequence: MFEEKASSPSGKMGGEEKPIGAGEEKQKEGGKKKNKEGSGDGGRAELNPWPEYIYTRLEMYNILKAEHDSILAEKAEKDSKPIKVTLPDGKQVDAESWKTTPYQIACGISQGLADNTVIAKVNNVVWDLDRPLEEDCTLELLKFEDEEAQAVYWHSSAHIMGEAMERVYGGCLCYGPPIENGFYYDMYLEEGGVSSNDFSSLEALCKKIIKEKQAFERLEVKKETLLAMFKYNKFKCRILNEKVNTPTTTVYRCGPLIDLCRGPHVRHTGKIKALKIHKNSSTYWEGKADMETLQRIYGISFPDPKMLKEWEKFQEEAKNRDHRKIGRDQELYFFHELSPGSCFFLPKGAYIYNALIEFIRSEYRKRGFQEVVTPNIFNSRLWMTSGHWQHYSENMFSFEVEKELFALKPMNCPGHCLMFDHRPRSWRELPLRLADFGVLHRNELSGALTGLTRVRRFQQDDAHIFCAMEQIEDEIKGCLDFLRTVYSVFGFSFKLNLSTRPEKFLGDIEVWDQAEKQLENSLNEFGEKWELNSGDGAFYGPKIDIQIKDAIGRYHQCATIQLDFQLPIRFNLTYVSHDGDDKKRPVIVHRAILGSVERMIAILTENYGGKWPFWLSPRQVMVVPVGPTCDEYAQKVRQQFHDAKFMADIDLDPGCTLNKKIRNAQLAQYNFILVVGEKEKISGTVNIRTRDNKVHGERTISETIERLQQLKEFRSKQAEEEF

binding [1]	binding [2]	binding [3]	binding [4]	binding [5]	Substance
binds	binds	binds	binds	binds weakly	Bifunctional aminoacyl-tRNA synthetase (glutamyl-prolyl-tRNA synthetase) (from UniProt P07814 1-1512) (enzyme)
no binding	no binding	no binding			ISGylated TARS (from UniProt P26639 1-723; P05161 1-157)
